Data published in US8501450B2, “Hepatitis C virus variants” (priority 2005, dated 2013).

How the values were obtained:
mutant HCV protease V36M = molecular target: T1, mutant HCV protease V36M (Hepatitis C virus genotype 1a, UniProt P27958, A1027M/V1062M); type: biochemical; conditions: apparently fold change vs wild-type
T1 construct: A DNA fragment encoding Met^1-Ser^181 of the HCV NS3 protease was amplified; made in house; host or cells: E. coli BL21 (DE3)

[1] = molecular target: T2, mutant HCV protease V36M + R155K (Hepatitis C virus genotype 1a, UniProt P27958, R1181K/V1062M); type: biochemical; conditions: apparently fold change vs wild-type
T2 construct: A DNA fragment encoding Met^1-Ser^181 of the HCV NS3 protease was amplified; made in house; host or cells: E. coli BL21 (DE3)

Compound | Resistance, Enzyme Assay (mutant HCV protease V36M) | Resistance, Enzyme Assay [1]
CC(C)(C)OC(=O)N[C@H]1CCCCC/C=C\[C@@H]2C[C@@]2(C(=O)NS(=O)(=O)C2CC2)NC(=O)[C@@H]2C[C@@H](OC(=O)N3Cc4cccc(F)c4C3)CN2C1=O [ITMN-191] | 1.9 | 220
COc1ccc2c(O[C@@H]3C[C@H]4C(=O)N[C@]5(C(=O)O)C[C@H]5/C=C\CCCCC[C@H](NC(=O)OC5CCCC5)C(=O)N4C3)cc(-c3csc(NC(C)C)n3)nc2c1 [BILN 2061] | 0.6 | >250
CC(C)(C)NC(=O)N[C@H](C(=O)N1C[C@H]2[C@@H]([C@H]1C(=O)NC(CC1CCC1)C(=O)C(N)=O)C2(C)C)C(C)(C)C (stereo partly drawn) [SCH 503034] | 4.4 | 39
